Binding data for 7 molecules are collected here from PMC4199523.

By UniProt entry, the sequences of proteins in these tests, tags left out.
UniProt D0EL35: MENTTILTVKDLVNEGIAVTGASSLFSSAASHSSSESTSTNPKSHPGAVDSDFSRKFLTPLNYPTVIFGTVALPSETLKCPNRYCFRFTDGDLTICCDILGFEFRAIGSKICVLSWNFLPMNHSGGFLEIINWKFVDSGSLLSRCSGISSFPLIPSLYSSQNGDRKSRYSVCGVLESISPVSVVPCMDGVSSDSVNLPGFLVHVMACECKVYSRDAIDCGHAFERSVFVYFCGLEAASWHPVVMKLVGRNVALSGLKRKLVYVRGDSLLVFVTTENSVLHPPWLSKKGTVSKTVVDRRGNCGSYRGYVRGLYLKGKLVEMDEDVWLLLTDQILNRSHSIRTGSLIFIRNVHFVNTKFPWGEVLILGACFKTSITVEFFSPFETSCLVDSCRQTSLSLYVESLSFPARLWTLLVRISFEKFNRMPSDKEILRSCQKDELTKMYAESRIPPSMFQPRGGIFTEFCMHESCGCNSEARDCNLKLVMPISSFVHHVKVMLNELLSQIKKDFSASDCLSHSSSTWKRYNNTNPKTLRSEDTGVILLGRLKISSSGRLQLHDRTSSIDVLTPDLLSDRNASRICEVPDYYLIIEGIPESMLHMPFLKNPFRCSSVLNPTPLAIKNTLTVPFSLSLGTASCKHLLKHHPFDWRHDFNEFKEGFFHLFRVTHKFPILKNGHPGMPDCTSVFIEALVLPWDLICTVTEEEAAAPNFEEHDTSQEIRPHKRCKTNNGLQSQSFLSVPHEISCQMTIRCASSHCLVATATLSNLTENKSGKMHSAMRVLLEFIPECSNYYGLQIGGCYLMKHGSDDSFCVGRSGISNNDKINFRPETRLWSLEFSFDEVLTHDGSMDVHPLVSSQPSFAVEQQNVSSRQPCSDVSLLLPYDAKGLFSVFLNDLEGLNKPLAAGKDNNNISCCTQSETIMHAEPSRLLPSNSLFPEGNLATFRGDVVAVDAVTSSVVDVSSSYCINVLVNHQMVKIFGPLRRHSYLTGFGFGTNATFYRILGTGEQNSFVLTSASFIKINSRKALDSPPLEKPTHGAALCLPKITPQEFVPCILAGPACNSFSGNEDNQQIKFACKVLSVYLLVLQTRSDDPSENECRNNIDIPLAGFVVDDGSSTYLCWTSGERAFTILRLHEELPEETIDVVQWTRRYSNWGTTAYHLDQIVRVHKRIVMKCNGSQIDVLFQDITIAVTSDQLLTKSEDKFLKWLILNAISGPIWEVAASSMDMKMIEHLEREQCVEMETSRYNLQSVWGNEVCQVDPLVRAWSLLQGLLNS

Results are given in words; binding and its absence hold for the method and conditions named. In cells and extracts the contact can be indirect. Some entries that bind do so weakly or less than the wild type. For some of these results: Tags and fused reporters may be left off the sequences shown.

The target of assay [1] is T1, STN1, endogenous in Arabidopsis seedlings (Arabidopsis thaliana (endogenous in seedlings)) (UniProt Q9LMK5).
T1 sequence: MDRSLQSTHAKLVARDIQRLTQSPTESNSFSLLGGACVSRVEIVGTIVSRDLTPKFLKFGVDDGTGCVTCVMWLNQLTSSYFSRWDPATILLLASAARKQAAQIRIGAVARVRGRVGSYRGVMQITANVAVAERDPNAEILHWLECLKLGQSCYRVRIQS
The assay can be described thus: co-IP; IP from wild type or pot1a Arabidopsis seedling extracts with affinity purified TERT, STN1 or TEN1 antibody, protein-A agarose, washes with buffers W300 and TMG; western blot. (A western blot detects proteins with antibodies after separation by electrophoresis.)

The target of assay [2] is T2, E. coli-expressed TEN1 (Arabidopsis thaliana) (UniProt Q6NME7).
T2 sequence: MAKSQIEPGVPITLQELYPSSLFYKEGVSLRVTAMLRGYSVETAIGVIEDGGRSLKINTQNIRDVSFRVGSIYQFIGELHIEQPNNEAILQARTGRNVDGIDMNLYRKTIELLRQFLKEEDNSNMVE
The assay can be described thus: co-IP; in vitro co-IP and competition: purified E. coli TEN1 (IP with purified TEN1 antibody and protein-A agarose) or purified E. coli POT1a OB1 (IP of POT1a) with RRL-expressed 35S-methionine labeled STN1; increasing POT1a OB1 or 50x BSA; 10 washes with buffer W300; coomassie stain and autoradiography; only the target purified.

For assay [3], the target named is T3, E. coli-expressed POT1a OB1 (first OB-fold of POT1a) (Arabidopsis thaliana) (UniProt Q56Y52).
T3 sequence: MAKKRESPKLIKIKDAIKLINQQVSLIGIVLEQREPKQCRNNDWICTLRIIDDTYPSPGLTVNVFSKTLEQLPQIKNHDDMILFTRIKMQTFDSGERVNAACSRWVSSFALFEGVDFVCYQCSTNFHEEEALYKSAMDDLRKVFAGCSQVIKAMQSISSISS
Described as above.

Assay [4] has as its target T4, T7-tagged TEN1, RRL-expressed (Arabidopsis thaliana) (UniProt Q6NME7).
T4 sequence: T2 sequence
The assay can be described thus: co-IP; in vitro co-IP of RRL-expressed proteins: T7-tagged bait precipitated with T7 antibody-conjugated agarose beads, 35S-methionine labeled prey detected by autoradiography.

For assay [5], the target named is T5, T7-tagged POT1a (Protection of Telomeres 1a), RRL-expressed (Arabidopsis thaliana) (UniProt Q56Y52).
T5 sequence: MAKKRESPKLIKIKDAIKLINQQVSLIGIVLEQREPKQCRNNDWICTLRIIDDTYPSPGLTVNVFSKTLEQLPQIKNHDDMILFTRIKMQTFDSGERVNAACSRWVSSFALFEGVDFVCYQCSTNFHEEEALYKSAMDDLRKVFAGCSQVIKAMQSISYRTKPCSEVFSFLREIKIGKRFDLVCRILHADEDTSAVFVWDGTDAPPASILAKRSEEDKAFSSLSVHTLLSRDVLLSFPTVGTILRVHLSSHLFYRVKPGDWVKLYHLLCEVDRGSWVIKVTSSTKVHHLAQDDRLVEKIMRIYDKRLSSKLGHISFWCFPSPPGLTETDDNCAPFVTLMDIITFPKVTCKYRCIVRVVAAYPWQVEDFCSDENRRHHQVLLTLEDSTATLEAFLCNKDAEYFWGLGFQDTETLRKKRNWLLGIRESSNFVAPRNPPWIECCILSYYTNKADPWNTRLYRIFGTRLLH
The assay is described as above.

Assay [6] deals with T6, TERT (telomerase catalytic subunit), endogenous in Arabidopsis seedlings (Arabidopsis thaliana (endogenous in seedlings)) (UniProt Q9SPU7).
T6 sequence: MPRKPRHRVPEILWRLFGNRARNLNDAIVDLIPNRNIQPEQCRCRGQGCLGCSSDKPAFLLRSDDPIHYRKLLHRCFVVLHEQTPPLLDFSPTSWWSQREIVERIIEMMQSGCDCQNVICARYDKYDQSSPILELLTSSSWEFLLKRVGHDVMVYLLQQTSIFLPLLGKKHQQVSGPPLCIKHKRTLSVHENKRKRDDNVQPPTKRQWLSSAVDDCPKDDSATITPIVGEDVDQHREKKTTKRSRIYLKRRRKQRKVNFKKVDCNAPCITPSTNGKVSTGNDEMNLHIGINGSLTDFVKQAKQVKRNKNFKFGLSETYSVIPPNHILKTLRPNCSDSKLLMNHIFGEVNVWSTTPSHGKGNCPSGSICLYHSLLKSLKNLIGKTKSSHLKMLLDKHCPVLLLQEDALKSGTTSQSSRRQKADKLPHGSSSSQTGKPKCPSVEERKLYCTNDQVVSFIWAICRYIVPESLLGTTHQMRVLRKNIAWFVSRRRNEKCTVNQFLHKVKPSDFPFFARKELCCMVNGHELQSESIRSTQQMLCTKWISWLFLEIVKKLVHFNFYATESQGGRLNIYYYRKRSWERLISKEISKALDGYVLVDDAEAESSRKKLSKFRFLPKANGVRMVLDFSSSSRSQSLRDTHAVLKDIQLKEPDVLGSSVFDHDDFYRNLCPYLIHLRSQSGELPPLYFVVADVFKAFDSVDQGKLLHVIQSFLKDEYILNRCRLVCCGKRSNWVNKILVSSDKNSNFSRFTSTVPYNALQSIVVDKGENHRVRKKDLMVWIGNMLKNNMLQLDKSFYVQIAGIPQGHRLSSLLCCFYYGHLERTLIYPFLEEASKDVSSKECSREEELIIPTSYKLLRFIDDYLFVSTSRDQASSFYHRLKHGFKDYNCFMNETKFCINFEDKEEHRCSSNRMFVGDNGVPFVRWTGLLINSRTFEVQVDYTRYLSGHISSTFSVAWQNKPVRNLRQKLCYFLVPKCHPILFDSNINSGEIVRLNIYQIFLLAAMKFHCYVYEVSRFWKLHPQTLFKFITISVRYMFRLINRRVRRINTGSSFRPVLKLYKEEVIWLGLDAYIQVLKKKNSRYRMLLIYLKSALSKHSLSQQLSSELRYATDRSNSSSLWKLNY
Nature of the assay: co-IP; IP from wild type or pot1a Arabidopsis seedling extracts with affinity purified TERT, STN1 or TEN1 antibody, protein-A agarose, washes with buffers W300 and TMG; western blot.

In assay [7] the target is transgenic CTC1-CFP protein (Arabidopsis thaliana) (UniProt D0EL35). The assay can be described thus: co-IP; IP of CTC1-CFP from transgenic Arabidopsis extract with anti-GFP antibody, protein-A agarose; western blot with anti-GFP and anti-POT1a antibodies; untransformed wild type tissue as negative control.

B1: TERT (telomerase catalytic subunit), endogenous in Arabidopsis seedlings (enzyme, UniProt Q9SPU7 1-1123)
chain: T6 sequence
Regarding B1, in assay [1], the binding entry is “binds”.

B2: 35S-methionine labeled STN1, RRL-expressed (protein, UniProt Q9LMK5 1-160)
chain: T1 sequence
modifications: 35S-methionine labeled
As to B2, the binding entry in assay [2], in assay [3], in assay [4] and in assay [5] was “binds” each time.

B3: STN1, endogenous in Arabidopsis seedlings (protein, UniProt Q9LMK5 1-160)
chain: T1 sequence
For the molecule B3, the binding entry in assay [6] is on record as “binds”.

B4: 35S-methionine labeled TEN1, RRL-expressed (protein, UniProt Q6NME7 1-127)
chain: T2 sequence
modifications: 35S-methionine labeled
As for B4, the binding entry in assay [5] was “no binding”.

B5: TEN1, endogenous in Arabidopsis seedlings (protein, UniProt Q6NME7 1-127)
chain: T2 sequence
As for B5, the binding result in assay [6] is recorded as “no binding”.

B6: POT1a, endogenous in Arabidopsis (protein, UniProt Q56Y52 1-467)
chain: T5 sequence
B6: the binding entry in assay [7] is “binds”.

B7: 35S-methionine labeled POT1a, RRL-expressed (protein, UniProt Q56Y52 1-467)
chain: T5 sequence
modifications: 35S-methionine labeled
B7: in assay [4], the binding result is on record as “no binding”.
